Results as given in the supplement of paper PMC12217912.
Some of the results follow. Sequences were assembled here from the parent chain. Values near 0.05 are background.

B1: TEV protease; numbered along this chain (parent)
chain: MGESLFKGPRDYNPISSSICHLTNESDGHTTSLYGIGFGPFIITNKHLFRRNNGTLVVQSLHGVFKVKDTTTLQQHLVDGRDMIIIRMPKDFPPFPQKLKFREPQREERICLVTTNFQTKSMSSMVSDTSCTFPSGDGIFWKHWIQTKDGQCGSPLVSTRDGFIVGIHSASNFTNTNNYFTSVPKNFMELLTNQEAQQWVSGWRLNADSVLWGGHKVFMVKPEEPFQPVKEATQL

Variants of: B1
Test: raw area under fraction-flipped curve 0-4 h after induction (AUC4h, not background-subtracted), DNA-recorder readout of cleavage of the substrate (dimensionless); higher = more cleavage of the substrate by the protease variant
Conditions: temperature: 34 °C; time window: 0-4 h after rhamnose induction
Description: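 In vivo DNA recorder in E. coli TOP10(DE3) ΔrhaA at 34 °C. Each TEVp single-site mutant (parent TEVp 0) is paired with a single-site variant of the 7-mer TEVs (canonical ENLYFQ|S). The substrate sits between flexible linkers in a Bxb1-sfGFP-TEVs-SsrA fusion, so cleavage stabilises Bxb1 and speeds flipping of a recombination array, read by NGS. The value is the raw area under the fraction-flipped curve over 0-4 h after rhamnose induction (AUC4h), with ≥20 reads per time point. It is not background-subtracted; inactive controls average about 0.047.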
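Note: Bxb1 expression induced with 0.2% (w/v) L-rhamnose at OD600 near 0.5, cultures sampled hourly, flipped fraction per protease–substrate barcode pair counted by paired-end Illumina sequencing.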

Row | Variant | area with substrate ENLYFAS | area with substrate ENLYFCS | area with substrate ENLYFDS | area with substrate ENLYFES | area with substrate ENLYFFS | area with substrate ENLYFHS | area with substrate ENLYFIS | area with substrate ENLYFKS | area with substrate ENLYFLS | area with substrate ENLYFMS | area with substrate ENLYFNS | area with substrate ENLYFPS | area with substrate ENLYFRS | area with substrate ENLYFSS | area with substrate ENLYFTS | area with substrate ENLYFWS | area with substrate ENLYFYS | area with substrate ENLYFGS | area with substrate ENLYFVS
1 | P40K | 0.0609 | 0.0572 | 0.0587 | 0.0762 | 0.061 | 0.0649 | 0.0477 | 0.0589 | 0.0592 | 0.0581 | 0.0804 | 0.0674 | 0.0623 | 0.0573 | 0.02 | 0.0714 | – | – | –
2 | P40L | 0.0556 | 0.0458 | – | 0.0234 | 0.0698 | 0.0575 | 0.067 | – | – | 0.0594 | – | 0.0582 | – | 0.0677 | 0.0544 | – | 0.0505 | – | –
3 | P40C | 0.0574 | 0.0093 | 0.0597 | 0.068 | 0.0706 | 0.0468 | 0.0558 | 0.0846 | – | 0.0579 | 0.0713 | 0.0645 | 0.0669 | 0.0478 | 0.056 | 0.0593 | 0.0628 | 0.0521 | 0.0607
4 | P40I | 0.0518 | 0.0573 | 0.0437 | 0.0547 | 0.0591 | – | 0.0529 | 0.0561 | – | 0.0616 | 0.0624 | 0.0565 | 0.0483 | – | 0.0497 | – | – | 0.0395 | –
5 | P40G | 0.0703 | 0.0596 | 0.0535 | 0.0644 | 0.0615 | 0.0619 | 0.0582 | 0.064 | 0.049 | 0.0706 | 0.0657 | 0.0605 | 0.0919 | 0.0689 | 0.0734 | 0.0541 | 0.0557 | – | –
6 | P40D | 0.0733 | 0.0585 | – | 0.0766 | 0.0668 | – | 0.0667 | 0.0289 | – | 0.0447 | 0.0664 | 0.0609 | 0.0492 | 0.056 | 0.0622 | 0.0458 | 0.0146 | – | 0.0565
7 | P40N | 0.0753 | – | – | 0.0547 | 0.0569 | 0.0805 | 0.0513 | 0.0558 | 0.0667 | 0.0634 | 0.0695 | 0.0678 | 0.062 | 0.0388 | – | 0.0533 | – | 0.0652 | 0.0571
8 | P40F | 0.0639 | 0.0465 | 0.0522 | 0.0672 | 0.0832 | – | 0.0602 | 0.0617 | 0.0652 | 0.0691 | 0.074 | 0.0591 | 0.0464 | 0.0442 | 0.0458 | 0.0453 | 0.0944 | – | –
9 | P40T | 0.0431 | 0.0663 | – | 0.0605 | 0.0464 | 0.0599 | 0.0612 | – | 0.0533 | 0.0623 | 0.0297 | 0.057 | 0.069 | – | 0.0622 | 0.0709 | 0.055 | 0.0451 | 0.0628
10 | P40S | 0.0625 | 0.0602 | – | 0.0743 | 0.0631 | 0.0773 | 0.0604 | 0.0749 | 0.0565 | 0.0682 | 0.0559 | 0.0705 | 0.0659 | 0.0548 | 0.0615 | 0.0518 | 0.0558 | – | 0.0591
11 | I43K | 0.0449 | – | 0.0483 | 0.063 | 0.0586 | 0.0391 | 0.0461 | – | – | 0.0499 | 0.0424 | 0.0421 | 0.0458 | 0.0431 | 0.0525 | – | 0.0417 | – | 0.0571
12 | I43R | 0.0355 | 0.0585 | – | 0.0492 | 0.0336 | 0.0495 | 0.0267 | 0.051 | – | 0.0452 | 0.0478 | 0.0433 | 0.0467 | 0.0388 | – | 0.04 | 0.0524 | 0.0333 | 0.0364
13 | L48E | 0.0539 | 0.059 | 0.06 | 0.0588 | 0.0671 | – | 0.0584 | 0.064 | – | 0.0636 | – | 0.0607 | 0.06 | – | 0.0657 | – | – | – | –
14 | L48I | 0.0624 | 0.0655 | 0.0561 | 0.0569 | 0.0717 | 0.0492 | 0.0559 | – | – | 0.0608 | 0.0603 | 0.0627 | 0.0805 | – | 0.0632 | 0.0538 | 0.0836 | 0.058 | –
15 | L48A | 0.0324 | 0.0718 | 0.0642 | 0.0609 | 0.0735 | – | 0.0591 | – | 0.0628 | 0.063 | 0.0639 | 0.0588 | 0.0576 | 0.051 | 0.0562 | 0.0532 | – | – | –
16 | L48C | 0.0511 | 0.0586 | – | 0.0608 | 0.0533 | 0.0502 | 0.0592 | 0.0651 | – | – | 0.0639 | 0.062 | – | – | 0.0645 | – | – | 0.0575 | 0.0487
17 | L48S | 0.0734 | – | – | – | 0.07 | 0.0511 | 0.0629 | 0.0572 | 0.0638 | 0.059 | 0.0734 | 0.0603 | 0.0573 | – | 0.0493 | 0.049 | 0.0526 | 0.0649 | 0.0608
18 | L48G | 0.0588 | 0.0638 | 0.0612 | 0.0584 | 0.0798 | – | 0.0545 | 0.0672 | 0.0763 | 0.0603 | 0.0622 | 0.055 | 0.0631 | 0.0626 | 0.068 | 0.0602 | 0.0552 | 0.0471 | 0.0687
19 | L48K | 0.0534 | 0.0556 | 0.0527 | 0.0654 | – | 0.0605 | 0.0687 | – | – | 0.0626 | 0.0601 | 0.0642 | 0.0626 | 0.0429 | 0.0591 | – | – | – | –
20 | L48R | 0.0646 | 0.0586 | – | 0.0632 | 0.0672 | 0.0534 | 0.064 | 0.0555 | 0.0609 | 0.055 | 0.0631 | 0.0675 | 0.0333 | 0.0667 | 0.084 | 0.0569 | 0.069 | 0.0582 | 0.0227
21 | L48F | 0.0718 | 0.0952 | – | 0.0662 | 0.0656 | 0.0667 | 0.0589 | 0.0567 | – | 0.0658 | 0.0715 | 0.0578 | – | 0.0472 | 0.0622 | 0.0503 | – | – | 0.0681
22 | L48N | 0.0527 | 0.0574 | – | 0.0593 | 0.0742 | 0.0523 | 0.062 | 0.0621 | 0.0716 | 0.0715 | 0.0663 | 0.0884 | 0.0717 | 0.0503 | 0.0524 | – | 0.0604 | 0.0478 | 0.0675
23 | L48Q | 0.048 | 0.0684 | 0.0636 | 0.0528 | 0.0708 | 0.0466 | 0.0496 | 0.0533 | 0.0614 | 0.0624 | – | 0.0636 | – | 0.0468 | 0.0523 | 0.0589 | 0.0578 | – | 0.0419
